Measured values as given in the supplement of paper PMC11876631.
± gives the standard deviation of the averaged measurements. Laboratory Escherichia coli strains with one amino-acid change in an essential protein, pooled on minimal glucose agar with carbenicillin or gentamicin at twice the control MIC (plus kanamycin and chloramphenicol for the plasmids), 48 h. Fold change of barcode share against drug-free plates; higher = less susceptible. Active = above 20 in both replicates (the paper's putatively resistant). '<' = one read or none on drug, '>' = one read or none on a drug-free plate. Shares are relative, so most strains fall below 1 when a few take over. Listed are strains with at least 15 reads on both drug-free plates, and hits; most hits rest on fewer reference reads. Replicate rank correlation about 0.5. Edits are read from barcodes.

B1: nrdA L172Q (protein)
chain: MNQNLLVTKRDGSTERINLDKIHRVLDWAAEGLHNVSISQVELRSHIQFYDGIKTSDIHETIIKAAADLISRDAPDYQYLAARLAIFHLRKKAYGQFEPPALYDHVVKMVEMGKYDNHLLEDYTEEEFKQMDTFIDHDRDMTFSYAAVKQLEGKYLVQNRVTGEIYESAQFQYILVAACLFSNYPRETRLQYVKRFYDAVSTFKISLPTPIMSGVRTPTRQFSSCVLIECGDSLDSINATSSAIVKYVSQRAGIGINAGRIRALGSPIRGGEAFHTGCIPFYKHFQTAVKSCSQGGVRGGAATLFYPMWHLEVESLLVLKNNRGVEGNRVRHMDYGVQINKLMYTRLLKGEDITLFSPSDVPGLYDAFFADQEEFERLYTKYEKDDSIRKQRVKAVELFSLMMQERASTGRIYIQNVDHCNTHSPFDPAIAPVRQSNLCLEIALPTKPLNDVNDENGEIALCTLSAFNLGAINNLDELEELAILAVRALDALLDYQDYPIPAAKRGAMGRRTLGIGVINFAYYLAKHGKRYSDGSANNLTHKTFEAIQYYLLKASNELAKEQGACPWFNETTYAKGILPIDTYKKDLDTIANEPLHYDWEALRESIKTHGLRNSTLSALMPSETSSQISNATNGIEPPRGYVSIKASKDGILRQVVPDYEHLHDAYELLWEMPGNDGYLQLVGIMQKFIDQSISANTNYDPSRFPSGKVPMQQLLKDLLTAYKFGVKTLYYQNTRDGAEDAQDDLVPSIQDDGCESGACKI
B2: nrdA L180W (protein)
chain: MNQNLLVTKRDGSTERINLDKIHRVLDWAAEGLHNVSISQVELRSHIQFYDGIKTSDIHETIIKAAADLISRDAPDYQYLAARLAIFHLRKKAYGQFEPPALYDHVVKMVEMGKYDNHLLEDYTEEEFKQMDTFIDHDRDMTFSYAAVKQLEGKYLVQNRVTGEIYESAQFLYILVAACWFSNYPRETRLQYVKRFYDAVSTFKISLPTPIMSGVRTPTRQFSSCVLIECGDSLDSINATSSAIVKYVSQRAGIGINAGRIRALGSPIRGGEAFHTGCIPFYKHFQTAVKSCSQGGVRGGAATLFYPMWHLEVESLLVLKNNRGVEGNRVRHMDYGVQINKLMYTRLLKGEDITLFSPSDVPGLYDAFFADQEEFERLYTKYEKDDSIRKQRVKAVELFSLMMQERASTGRIYIQNVDHCNTHSPFDPAIAPVRQSNLCLEIALPTKPLNDVNDENGEIALCTLSAFNLGAINNLDELEELAILAVRALDALLDYQDYPIPAAKRGAMGRRTLGIGVINFAYYLAKHGKRYSDGSANNLTHKTFEAIQYYLLKASNELAKEQGACPWFNETTYAKGILPIDTYKKDLDTIANEPLHYDWEALRESIKTHGLRNSTLSALMPSETSSQISNATNGIEPPRGYVSIKASKDGILRQVVPDYEHLHDAYELLWEMPGNDGYLQLVGIMQKFIDQSISANTNYDPSRFPSGKVPMQQLLKDLLTAYKFGVKTLYYQNTRDGAEDAQDDLVPSIQDDGCESGACKI
B3: nrdA L227A (protein)
chain: MNQNLLVTKRDGSTERINLDKIHRVLDWAAEGLHNVSISQVELRSHIQFYDGIKTSDIHETIIKAAADLISRDAPDYQYLAARLAIFHLRKKAYGQFEPPALYDHVVKMVEMGKYDNHLLEDYTEEEFKQMDTFIDHDRDMTFSYAAVKQLEGKYLVQNRVTGEIYESAQFLYILVAACLFSNYPRETRLQYVKRFYDAVSTFKISLPTPIMSGVRTPTRQFSSCVAIECGDSLDSINATSSAIVKYVSQRAGIGINAGRIRALGSPIRGGEAFHTGCIPFYKHFQTAVKSCSQGGVRGGAATLFYPMWHLEVESLLVLKNNRGVEGNRVRHMDYGVQINKLMYTRLLKGEDITLFSPSDVPGLYDAFFADQEEFERLYTKYEKDDSIRKQRVKAVELFSLMMQERASTGRIYIQNVDHCNTHSPFDPAIAPVRQSNLCLEIALPTKPLNDVNDENGEIALCTLSAFNLGAINNLDELEELAILAVRALDALLDYQDYPIPAAKRGAMGRRTLGIGVINFAYYLAKHGKRYSDGSANNLTHKTFEAIQYYLLKASNELAKEQGACPWFNETTYAKGILPIDTYKKDLDTIANEPLHYDWEALRESIKTHGLRNSTLSALMPSETSSQISNATNGIEPPRGYVSIKASKDGILRQVVPDYEHLHDAYELLWEMPGNDGYLQLVGIMQKFIDQSISANTNYDPSRFPSGKVPMQQLLKDLLTAYKFGVKTLYYQNTRDGAEDAQDDLVPSIQDDGCESGACKI
B4: nrdA L227Q (protein)
chain: MNQNLLVTKRDGSTERINLDKIHRVLDWAAEGLHNVSISQVELRSHIQFYDGIKTSDIHETIIKAAADLISRDAPDYQYLAARLAIFHLRKKAYGQFEPPALYDHVVKMVEMGKYDNHLLEDYTEEEFKQMDTFIDHDRDMTFSYAAVKQLEGKYLVQNRVTGEIYESAQFLYILVAACLFSNYPRETRLQYVKRFYDAVSTFKISLPTPIMSGVRTPTRQFSSCVQIECGDSLDSINATSSAIVKYVSQRAGIGINAGRIRALGSPIRGGEAFHTGCIPFYKHFQTAVKSCSQGGVRGGAATLFYPMWHLEVESLLVLKNNRGVEGNRVRHMDYGVQINKLMYTRLLKGEDITLFSPSDVPGLYDAFFADQEEFERLYTKYEKDDSIRKQRVKAVELFSLMMQERASTGRIYIQNVDHCNTHSPFDPAIAPVRQSNLCLEIALPTKPLNDVNDENGEIALCTLSAFNLGAINNLDELEELAILAVRALDALLDYQDYPIPAAKRGAMGRRTLGIGVINFAYYLAKHGKRYSDGSANNLTHKTFEAIQYYLLKASNELAKEQGACPWFNETTYAKGILPIDTYKKDLDTIANEPLHYDWEALRESIKTHGLRNSTLSALMPSETSSQISNATNGIEPPRGYVSIKASKDGILRQVVPDYEHLHDAYELLWEMPGNDGYLQLVGIMQKFIDQSISANTNYDPSRFPSGKVPMQQLLKDLLTAYKFGVKTLYYQNTRDGAEDAQDDLVPSIQDDGCESGACKI
B5: nrdA L180Q (protein)
chain: MNQNLLVTKRDGSTERINLDKIHRVLDWAAEGLHNVSISQVELRSHIQFYDGIKTSDIHETIIKAAADLISRDAPDYQYLAARLAIFHLRKKAYGQFEPPALYDHVVKMVEMGKYDNHLLEDYTEEEFKQMDTFIDHDRDMTFSYAAVKQLEGKYLVQNRVTGEIYESAQFLYILVAACQFSNYPRETRLQYVKRFYDAVSTFKISLPTPIMSGVRTPTRQFSSCVLIECGDSLDSINATSSAIVKYVSQRAGIGINAGRIRALGSPIRGGEAFHTGCIPFYKHFQTAVKSCSQGGVRGGAATLFYPMWHLEVESLLVLKNNRGVEGNRVRHMDYGVQINKLMYTRLLKGEDITLFSPSDVPGLYDAFFADQEEFERLYTKYEKDDSIRKQRVKAVELFSLMMQERASTGRIYIQNVDHCNTHSPFDPAIAPVRQSNLCLEIALPTKPLNDVNDENGEIALCTLSAFNLGAINNLDELEELAILAVRALDALLDYQDYPIPAAKRGAMGRRTLGIGVINFAYYLAKHGKRYSDGSANNLTHKTFEAIQYYLLKASNELAKEQGACPWFNETTYAKGILPIDTYKKDLDTIANEPLHYDWEALRESIKTHGLRNSTLSALMPSETSSQISNATNGIEPPRGYVSIKASKDGILRQVVPDYEHLHDAYELLWEMPGNDGYLQLVGIMQKFIDQSISANTNYDPSRFPSGKVPMQQLLKDLLTAYKFGVKTLYYQNTRDGAEDAQDDLVPSIQDDGCESGACKI
B6: nrdA L180P (protein)
chain: MNQNLLVTKRDGSTERINLDKIHRVLDWAAEGLHNVSISQVELRSHIQFYDGIKTSDIHETIIKAAADLISRDAPDYQYLAARLAIFHLRKKAYGQFEPPALYDHVVKMVEMGKYDNHLLEDYTEEEFKQMDTFIDHDRDMTFSYAAVKQLEGKYLVQNRVTGEIYESAQFLYILVAACPFSNYPRETRLQYVKRFYDAVSTFKISLPTPIMSGVRTPTRQFSSCVLIECGDSLDSINATSSAIVKYVSQRAGIGINAGRIRALGSPIRGGEAFHTGCIPFYKHFQTAVKSCSQGGVRGGAATLFYPMWHLEVESLLVLKNNRGVEGNRVRHMDYGVQINKLMYTRLLKGEDITLFSPSDVPGLYDAFFADQEEFERLYTKYEKDDSIRKQRVKAVELFSLMMQERASTGRIYIQNVDHCNTHSPFDPAIAPVRQSNLCLEIALPTKPLNDVNDENGEIALCTLSAFNLGAINNLDELEELAILAVRALDALLDYQDYPIPAAKRGAMGRRTLGIGVINFAYYLAKHGKRYSDGSANNLTHKTFEAIQYYLLKASNELAKEQGACPWFNETTYAKGILPIDTYKKDLDTIANEPLHYDWEALRESIKTHGLRNSTLSALMPSETSSQISNATNGIEPPRGYVSIKASKDGILRQVVPDYEHLHDAYELLWEMPGNDGYLQLVGIMQKFIDQSISANTNYDPSRFPSGKVPMQQLLKDLLTAYKFGVKTLYYQNTRDGAEDAQDDLVPSIQDDGCESGACKI
B7: nrdA L180D (protein)
chain: MNQNLLVTKRDGSTERINLDKIHRVLDWAAEGLHNVSISQVELRSHIQFYDGIKTSDIHETIIKAAADLISRDAPDYQYLAARLAIFHLRKKAYGQFEPPALYDHVVKMVEMGKYDNHLLEDYTEEEFKQMDTFIDHDRDMTFSYAAVKQLEGKYLVQNRVTGEIYESAQFLYILVAACDFSNYPRETRLQYVKRFYDAVSTFKISLPTPIMSGVRTPTRQFSSCVLIECGDSLDSINATSSAIVKYVSQRAGIGINAGRIRALGSPIRGGEAFHTGCIPFYKHFQTAVKSCSQGGVRGGAATLFYPMWHLEVESLLVLKNNRGVEGNRVRHMDYGVQINKLMYTRLLKGEDITLFSPSDVPGLYDAFFADQEEFERLYTKYEKDDSIRKQRVKAVELFSLMMQERASTGRIYIQNVDHCNTHSPFDPAIAPVRQSNLCLEIALPTKPLNDVNDENGEIALCTLSAFNLGAINNLDELEELAILAVRALDALLDYQDYPIPAAKRGAMGRRTLGIGVINFAYYLAKHGKRYSDGSANNLTHKTFEAIQYYLLKASNELAKEQGACPWFNETTYAKGILPIDTYKKDLDTIANEPLHYDWEALRESIKTHGLRNSTLSALMPSETSSQISNATNGIEPPRGYVSIKASKDGILRQVVPDYEHLHDAYELLWEMPGNDGYLQLVGIMQKFIDQSISANTNYDPSRFPSGKVPMQQLLKDLLTAYKFGVKTLYYQNTRDGAEDAQDDLVPSIQDDGCESGACKI

Biological target: Escherichia coli (laboratory strain)
Assay: barcode share on antibiotic plates over drug-free plates; higher = less susceptible
Conditions: antibiotic: carbenicillin; 2× MIC (3.1 µg/mL)
Procedure: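 A pool of E. coli strains, each edited to carry one amino-acid change in an essential protein, was grown for 48 h on minimal glucose agar with or without antibiotic; strain barcodes were sequenced; mean of two replicates.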

Protein | fold change of barcode share
B1 | 0.334 ± 0.21
B2 | 0.23 ± 0.037
B3 | 0.514 ± 0.35
B4 | 0.142 ± 0.042
B5 | 0.0887 ± 0.00024
B6 | 0.176 ± 0.13
B7 | 0.272 ± 0.15

Same assay, conditions: antibiotic: gentamicin; 2× MIC (MIC 0.45 µg/mL)

Protein | fold change of barcode share
B2 | < 0.00575
B3 | 0.0114 ± 0.0062
B4 | < 0.00584
B5 | 0.0144 ± 0.011
